In ChEMBL document CHEMBL4888484, “Replenishing the malaria drug discovery pipeline: Screening and hit evaluation of the MMV Hit Generation Library 1 (HGL1) against asexual blood stage Plasmodium falciparum ,using a nano luciferase reporter read-out” (2022):
Screen size: about 150,000 compounds; about 540 (0.36%) showed an effect of 50% or more. The list shows a part of the results.

tested on: Plasmodium falciparum; test: Primary screen in NF54 nanoGlo assay, in single point, at 2uM, 72h; a lower Z score goes with more inhibition; format: functional, Erythrocyte; conditions: timepoint 72 hour

Structure (SMILES) | % Inhibition [%] | Z score
CC(=O)Nc1cc(F)c(S(=O)(=O)Nc2ccsc2)c(F)c1 | 0 | -0.02
CC(CCC1CCCO1)NC(=O)c1cc(=O)[nH]c2cc(F)ccc12 (configuration not stated) | -8 | 1.68
COc1cccc(N2C[C@H](Cc3ccccc3)N(C(=O)CCC(C)=O)CC2=O)c1 | 1 | -0.12
Cc1ccc2oc(C(=O)N3CCN(C(=O)c4ccco4)CC3)cc2n1 | -2 | 0.26
O=C(CO)N[C@H]1CC2(CCCC2)Oc2ccccc21 | 6 | -0.71
COc1ccc(CNC(=O)Cn2c(C)nc3cc4c(cc32)OCCO4)cc1OC | 0 | 0.05
Cc1noc(-c2ccc(S(=O)(=O)N3CCC(c4nnc[nH]4)CC3)o2)c1C | 10 | -1.34
CCc1nnc(-c2c(C)c(S(=O)(=O)Nc3cccc(OC)c3)c(C)n2CC)o1 | 28 | -3.56
CN(Cc1cnccn1)C(=O)Cc1ccc(O)cc1Cl | 0 | -0.05
O=C(NCC(F)(F)F)[C@@H]1CCCN1c1nc2ccccc2o1 | -18 | 3.33
CC1CCN(c2cc(C(=O)O)ncn2)CC1 | -6 | 1.02
COc1cccc(C(C(=O)O)N2CCC(C3CCOCC3)C2)c1 (configuration not stated) | -9 | 1.05
CC(C)CC[C@H](C)NC(=O)Nc1nc(C(F)(F)F)co1 | -2 | 0.23
COc1cnc(NC(=O)c2cc(C(F)(F)F)cnc2C)s1 | 0 | 0.05
COC(=O)c1nnc(-c2ccc(F)cn2)o1 | -6 | 0.89
CC(C)C(=O)N1CC2(CCC2)[C@H]1c1ccccc1 | -9 | 1.58
CN(Cc1ccccc1)c1ccc(-c2ccc(Cl)cc2)nn1 | -17 | 1.97
CCCCc1cn(C2CCN(C(=O)[C@@H]3CCCO3)CC2)nn1 | -6 | 0.73
CCCC(=O)NCc1noc(-c2ccco2)n1 | 5 | -0.68

Structure (SMILES) | % Inhibition [%] | Z score
COc1cccc(-c2n[nH]c(CC(C)C)c2NC(=O)C2CCCC2)c1 | 4 | -0.45
CC(C)(C)N(Cc1ccccn1)C(=O)[C@H]1CCCOC1 | -6 | 0.73
CCOCCCNCc1ccc(C)cc1 | -16 | 2.55
COc1cc(CC2CN(C(=O)c3occc3C)C2)cc(OC)c1 | -6 | 0.81
CCn1cc(CN2CCO[C@@H](CCOC)C2)cc1C#N | -1 | 0.21
CC(C)c1noc(C2CCCCN2C(=O)C(C)n2cncn2)n1 (configuration not stated) | -3 | 0.48
CN(C)c1ccc(NC(=O)NC[C@H](O)c2ccco2)cc1Cl | -16 | 1.51
Cc1cc(-c2nc([C@H]3CCOC3)no2)c2ccccc2n1 | 2 | -0.33
O=C1CCN(CC(=O)N2CCC[C@H](C3CCOCC3)C2)C(=O)N1 | -2 | 0.28
c1cn(C2CCCC2)nc1CN1CC2(CCC2)[C@@H]1C1CCOCC1 | 2 | -0.31
COc1ccc(-c2ccc(N3CCCN(C(=O)CN(CC4CC4)C(=O)CC(C)C)CC3)nn2)cc1 | 4 | -0.61
CC(=O)N1C[C@@H](O)C[C@@H]1c1nc(-c2ccc(F)c(CN(C)C)c2)no1 | -22 | 2.34
C[C@H](NC1(CNC(=O)C(C)(C)C#N)CCCC1)c1ccccc1 | -15 | 2.96
Cc1cc(NC(=O)N2CCOC3(CC4CCC3C4)C2)ccn1 (configuration not stated) | -3 | 0.54
Cc1ccc(-c2noc3c(NCc4ccc(Cl)cc4)ncnc23)cc1 | -10 | 1.29
C=CCNc1cc(S(=O)(=O)N(C)C)ccc1OCC | 7 | -1.42
Cn1nc(NC(=O)c2cc3n(n2)CCCO3)cc1OC(F)F | 0 | 0.02
Cc1nc2ccccc2n1[C@H]1CCN(C(=O)Cn2ncccc2=O)C1 | 0 | -0.08
COc1cccc(C)c1NC(=O)N1C[C@H]2C[C@@H](C1)[C@@H]1CCCC(=O)N1C2 | 7 | -1.23

Structure (SMILES) | % Inhibition [%] | Z score
CCC1(CC)CN([C@@H]2CCNC(=O)CC2)CCO1 | -6 | 1.18
O=C(NCC1CC1)[C@]1(F)CCCN(S(=O)(=O)c2ccc(F)cc2F)C1 | -4 | 0.35
Cc1ccc(CN2C[C@@H](CO)[C@H](C3CCN(C(=O)C(C)C)CC3)C2)s1 | -8 | 0.98
CCOC(=O)C1(Cc2ccc(Cl)cc2)CCN(Cc2ccccn2)CC1 | -4 | 0.81
COc1ccc(CN2CCO[C@H](C(=O)NC3Cc4ccccc4C3)C2)cc1C | 2 | -0.37
Cc1ccc(C(=O)Nc2nccnc2C(=O)N2CCC(N3CCCCC3)CC2)cc1 | -5 | 0.75
O=C1C[C@H](NC(=O)c2cccc3ccnn23)c2ccccc2N1 | -6 | 0.77
CCN(CC#N)S(=O)(=O)c1cc(F)c(F)c(F)c1 | 0 | 0.06
O=c1c2nccnc2ncn1C[C@H]1CCc2ccccc2O1 | -1 | 0.13
CC1(C)CN(C(=O)c2cc(O)nc3ccccc23)CCO1 | -8 | 1.45
CCC(C)CN(CC(=O)N1CCc2sccc2C1COc1ccc(Cl)cc1)C(=O)c1cccs1 (configuration not stated) | -6 | 0.71
C[C@@H](c1ccon1)N(C)CC(=O)Nc1cnccn1 | -5 | 0.51
COCCN(C)C(=O)NOCc1ccccc1 | 6 | -0.82
COc1ccc(NC2CCOCC2)cc1 | -14 | 1.62
C[C@@H](CC(=O)Nc1nc(C(F)(F)F)cs1)NC(=O)C1CCCC1 | 15 | -1.27
CC[C@@H](CNC(=O)N1CCN(C(=O)c2ccccc2)CC1)N1CCOCC1 | 2 | -0.34
O=C(C[C@H](c1cn(Cc2ccccc2)c2ccccc12)C1CCCCC1)NCc1ccccc1 | -13 | 1.68
O=C(Nc1nc(C2CC2)cs1)[C@@H]1CCCO1 | -11 | 2.08
